{
  "source": "PubChem BioAssay AID1347044",
  "about": "(National Center for Advancing Translational Sciences (NCATS), 2019)",
  "note": "The list shows a part of the results. Further columns of the screen follow, without active or inactive calls. Compounds called inactive in the main read-out are mostly missing here. Potencies come from curve fits of mixed quality, noted in brackets. Tags describe the fitted curve by direction and shape.",
  "data": [
    {"assay": "Natriuretic polypeptide receptor (hNpr1) antagonism - Confirmation; further: nearly all actives have a fitted effect of over 70% in size", "conditions": "HEK293 hNpr1 cGMP GloSensor luminescence, ANP-stimulated; measured here: HEK-hNpr1 cytotoxicity, CellTiter-Glo", "summary_of_the_method": "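Compound (30 min, room temperature) preceded stimulation with hNppA peptide at 0.1 nM final for 20 min. Cells were HEK293 carrying hNpr1 plus GloSensor pGS-40F cGMP biosensor, pre-equilibrated 2 h with 2% substrate; cGMP was followed as luminescence pre- and post-agonist.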", "values": [
      {"molecule": "Clc1cnccc1CN1CCNc2cnc(Oc3ccccc3)cc2C1", "CC50": "11.1 µM [falling, partial curve]"},
      {"molecule": "CN(Cc1cccnc1)Cc1nc(C2(O)CCN(Cc3ccc(C(F)(F)F)cc3)CC2)cs1", "CC50": "0.685 µM [falling, full curve]"},
      {"molecule": "CC1=NS(=O)(=O)N(C)C=C1C(=O)OCc1noc(-c2ccccc2F)n1", "CC50": "19.3 µM [falling, partial curve]"},
      {"molecule": "COc1ccc(C(=O)N2CCC(Cc3nc(-c4ccccc4)no3)CC2)cc1F", "CC50": "4.32 µM [falling, full curve]"},
      {"molecule": "Cc1nn(-c2ccc(F)cc2)c(Oc2ccc(F)cc2F)c1CCC(=O)NCC1CC1", "CC50": "27.3 µM [falling, single point]"},
      {"molecule": "O=C(CC(c1ccc(F)cc1)c1cn(Cc2ccccc2)c2ccc([N+](=O)[O-])cc12)N1CCOCC1", "note": "(stereo unspecified)", "CC50": "38.5 µM [falling, single point]"},
      {"molecule": "Cc1cccc(CN2CCc3nc(C(=O)Nc4ccc(Cl)cc4)oc3CC2)c1", "CC50": "28 µM [falling, partial curve]"},
      {"molecule": "C[S+](=O)([O-])c1ccc(-c2cc(C(=O)NCCc3ccc(Cl)cc3)nn3cccc23)cc1", "CC50": "9.68 µM [falling, partial curve]"},
      {"molecule": "CCCS(=O)(=O)N1CC(Oc2ccc(-c3noc(-c4cccnc4)n3)cc2)C1", "CC50": "19.3 µM [falling, partial curve]"},
      {"molecule": "O=C1N(CC2CC2)CCOC12CCN([S+](=O)([O-])c1ccc(C(F)(F)F)cc1)CC2", "CC50": "22.2 µM [falling, partial curve]"},
      {"molecule": "CCCc1ccc2oc(C(=O)N(CC)Cc3ccncc3)c(C)c2c1", "CC50": "19.3 µM [falling, partial curve]"},
      {"molecule": "CCc1cc(N2CCCC(C(=O)c3sccc3C)C2)ncn1", "note": "(stereo unspecified)", "CC50": "15.3 µM [falling, partial curve]"},
      {"molecule": "COc1cccc(S(=O)(=O)N2CCC3(CC2)CC(N(C)Cc2ccccc2)CCO3)c1", "note": "(stereo unspecified)", "CC50": "21.7 µM [falling, partial curve]"},
      {"molecule": "CC(C)c1noc(-c2cn(C3CCN(C(=O)c4cccc(Br)c4)C3)nn2)n1", "note": "(stereo unspecified)", "CC50": "24.3 µM [falling, partial curve]"},
      {"molecule": "COc1ccc(C2Cn3nnc(C(=O)N4CCN(C(=O)Cc5cccc(F)c5)CC4)c3CO2)cc1", "note": "(stereo unspecified)", "CC50": "24.3 µM [falling, partial curve]"},
      {"molecule": "COc1cccc(-c2noc(CC3CCN(C(=O)c4ccccc4)CC3)n2)c1", "CC50": "21.7 µM [falling, partial curve]"},
      {"molecule": "N#Cc1ccc(CN2CCC3(CC2)CC(=O)c2ccccc2O3)cc1", "CC50": "31.4 µM [falling, partial curve]"},
      {"molecule": "COc1ccc(C(=O)N[C@H]2CO[C@H]3[C@@H]2OC[C@H]3OC(=O)Nc2ccccc2)cc1", "CC50": "39.6 µM [falling, partial curve, poor fit]"},
      {"molecule": "Cc1cccc(-n2ncc3c2CCCC3NC(=O)CCC(F)(F)F)c1C", "note": "(stereo unspecified)", "CC50": "34.3 µM [falling, single point]"},
      {"molecule": "COc1ccc(C(=O)N2CCC(n3cc(-c4nc(-c5ccccc5)no4)nn3)CC2)cc1", "CC50": "21.7 µM [falling, partial curve]"},
      {"molecule": "COc1cc(Cl)ccc1C(=O)N1CCN(c2cc(-c3cccs3)[nH]n2)CC1", "CC50": "21.7 µM [falling, partial curve]"},
      {"molecule": "O=C(c1ccc(F)cc1)N1CCC(n2cc(-c3nc(-c4ccccc4)no3)nn2)CC1", "CC50": "21.7 µM [falling, partial curve]"},
      {"molecule": "O=C(Nc1ccc(F)c(Cl)c1)C1CCc2sc(C(=O)N3CCOCC3)cc2C1", "note": "(stereo unspecified)", "CC50": "17.2 µM [falling, partial curve]"},
      {"molecule": "Cc1nc(N2CCC(C(=O)NC3CCc4ccccc43)CC2)cc(C(F)(F)F)n1", "note": "(stereo unspecified)", "CC50": "21.7 µM [falling, partial curve]"},
      {"molecule": "O=C(Nc1ccc(Cl)cc1)c1nc2c(o1)CCN(Cc1cccc(F)c1F)CC2", "CC50": "22.2 µM [falling, partial curve]"},
      {"molecule": "Cc1ccc(S(=O)(=O)N2CCc3c(C(=O)NCC(C)C)cccc32)cc1", "CC50": "27.3 µM [falling, partial curve, poor fit]"},
      {"molecule": "CC1(C)[C@H](Cc2cc(CN3CCN(c4ccccc4)CC3)on2)C[C@@H]1NC(=O)NCc1ccccc1", "CC50": "21.7 µM [falling, partial curve]"},
      {"molecule": "Cn1nc(C2CCN(S(=O)(=O)c3ccc4c(c3)CCCC4)CC2)n(C2CCCC2)c1=O", "CC50": "21.7 µM [falling, partial curve]"},
      {"molecule": "COC(=O)c1cccc(C(=O)N2CCC(Cc3nc(-c4ccc(F)cc4)no3)CC2)c1", "CC50": "9.68 µM [falling, partial curve]"},
      {"molecule": "O=C(c1ccc(F)cc1Cl)N1CCN(c2cc(-c3ccc(F)cc3)[nH]n2)CC1", "CC50": "17.2 µM [falling, partial curve]"},
      {"molecule": "COc1ccc(C2(C(=O)N3CCC(Cc4nc(-c5ccc(F)cc5)no4)CC3)CC2)cc1", "CC50": "8.62 µM [falling, partial curve]"},
      {"molecule": "COc1ccc(S(=O)(=O)N2CCc3c(C(=O)Nc4cccc(C)c4)cccc32)cc1", "CC50": "21.7 µM [falling, partial curve, poor fit]"},
      {"molecule": "COc1cc(NC(=O)Cn2c(N(C)Cc3ccccc3)nc(C)cc2=O)cc(OC)c1OC", "CC50": "12.2 µM [falling, partial curve]"},
      {"molecule": "COc1ccc(Nc2cnc3ccc(-c4ccccc4OC)nn23)cc1OC", "CC50": "28 µM [falling, partial curve]"},
      {"molecule": "COC(=O)c1ccc(COC(=O)C2=CN(C)S(=O)(=O)N=C2C)o1", "CC50": "17.2 µM [falling, partial curve]"},
      {"molecule": "O=C(Cc1c[nH]c2ncc(-c3ccccc3Oc3ccccc3)cc12)NCc1cccnc1", "CC50": "31.4 µM [falling, partial curve]"},
      {"molecule": "CCc1cnc(N2CCC(Oc3cnc4c(ccn4CCN[S+](C)(=O)[O-])c3)CC2)nc1", "CC50": "12.2 µM [falling, partial curve]"},
      {"molecule": "Cc1ccccc1CN1CC[C@@H]2OCC(=O)N(C(C)C)[C@H]2CC1", "CC50": "8.86 µM [falling, full curve]"},
      {"molecule": "CC(C)c1ccc(CN2CCC3(CC2)OCCN(c2ccc(F)cc2)C3=O)cc1", "CC50": "28 µM [falling, partial curve]"},
      {"molecule": "O=C1COc2ccc(-c3ccc4c(c3)OCO4)nc2CN1Cc1ccc(F)cc1", "CC50": "62.7 µM [falling, single point]"},
      {"molecule": "CCNC(=O)O[C@@H]1CO[C@H]2[C@@H]1OC[C@@H]2Nc1nccc(-c2ccc(-c3ccccc3)cc2)n1", "CC50": "8.62 µM [falling, partial curve]"},
      {"molecule": "Cc1nn2c(c1-c1ccccc1OCc1ccccc1)N(CC1CC1)CCC2", "CC50": "70.3 µM [falling, single point]"},
      {"molecule": "CN1C[C@@H](NC(=O)Nc2ccc(Cl)cc2)C[C@H]1c1nc(-c2ccc(F)cc2)no1", "CC50": "19.8 µM [falling, partial curve]"},
      {"molecule": "O=C(CC1CCCCC1)N1CCC(n2cc(-c3nc(-c4ccccc4)no3)nn2)CC1", "CC50": "21.7 µM [falling, partial curve]"},
      {"molecule": "COc1cccc(-c2noc(CC3CCN(C(=O)c4ccc(N(C)C)cc4)CC3)n2)c1", "CC50": "19.3 µM [falling, partial curve]"},
      {"molecule": "O=C1N(C2CCN(Cc3ccc(C(F)(F)F)cc3)CC2)Cc2cccn21", "CC50": "21.7 µM [falling, partial curve]"},
      {"molecule": "COc1ccc(CCNC(=O)c2noc(-c3ccc(C)cc3)n2)cc1OC", "CC50": "38.5 µM [falling, single point]"},
      {"molecule": "O=C(Cc1c[nH]c2ncc(-c3ccccc3Oc3ccccc3)cc12)N1CCOCC1", "CC50": "31.4 µM [falling, partial curve]"},
      {"molecule": "O=C1COc2ccc(OCc3cncs3)nc2CN1CCOc1ccccc1", "CC50": "31.4 µM [falling, partial curve]"},
      {"molecule": "CCc1noc(CC2CCOC3(CCN(S(=O)(=O)c4ccc(C(C)C)cc4)CC3)C2)n1", "note": "(stereo unspecified)", "CC50": "17.2 µM [falling, partial curve]"},
      {"molecule": "Cc1ccc(CN2CCN(C(=O)c3ccc4c(c3)C(O)CCCCCN4C)CC2)cc1", "note": "(stereo unspecified)", "CC50": "19.3 µM [falling, partial curve]"},
      {"molecule": "COc1cccc(CN2CCOC3(CCN(Cc4ccc(C#N)cc4)CC3)C2=O)c1", "CC50": "31.4 µM [falling, partial curve]"},
      {"molecule": "COc1ccc(C2Cn3nnc(C(=O)N4CCN(C(=O)c5ccc(C)s5)CC4)c3CO2)cc1", "note": "(stereo unspecified)", "CC50": "21.7 µM [falling, partial curve]"},
      {"molecule": "COc1cccc(C(=O)N2CCc3onc(-c4cccc(F)c4)c3C2)c1OC", "CC50": "15.3 µM [falling, partial curve]"},
      {"molecule": "Cc1cccc(-n2ncc3c2CCCC3NC(=O)c2c(F)ccc(F)c2F)c1C", "note": "(stereo unspecified)", "CC50": "17.2 µM [falling, partial curve]"},
      {"molecule": "N#Cc1cccc(-c2ccnc(N[C@H]3CO[C@H]4[C@@H]3OC[C@H]4OC(=O)Nc3ccc(Oc4ccccc4)cc3)n2)c1", "CC50": "5.44 µM [falling, full curve, poor fit]"},
      {"molecule": "COc1ccc(-c2noc(CC3CCN(C(=O)Cc4ccc(C)cc4)CC3)n2)cc1", "CC50": "24.3 µM [falling, partial curve]"},
      {"molecule": "Cc1cccc(NC(=O)Cn2c(N(C)Cc3ccccc3)nc(C)cc2=O)c1", "CC50": "19.3 µM [falling, partial curve]"},
      {"molecule": "CCc1noc(CC2CCOC3(CCN(S(=O)(=O)c4ccccc4Cl)CC3)C2)n1", "note": "(stereo unspecified)", "CC50": "30.6 µM [falling, single point]"},
      {"molecule": "O=C(c1ccc(F)cc1)N1CCC(Cc2nc(-c3ccc(F)cc3)no2)CC1", "CC50": "3.06 µM [falling, full curve]"},
      {"molecule": "CSc1nccc(N2CCC3(CC2)CC(=O)N(CC(C)C)C3)n1", "CC50": "5.44 µM [falling, full curve]"}
    ]}
  ]
}
